Measurements reported in ChEMBL document CHEMBL1157539, “Thousands of chemical starting points for antimalarial lead identification” (Nature, 2010).
Whole data set: some 13,000 compounds, median “IFI” near 4, cut for the highest 2% near 17. This is one part of the list.

Test: GSK_TCMDC: Inhibition Frequency Index (IFI). The number of non-kinase HTS assays where a compound showed > 50 % inhibition, expressed as a percentage of the number of such assays in which the compound was tested (-0 is zero)
Format: functional

| Compound | IFI [%] |
| --- | --- |
| CCCCCN1CCC(NS(=O)(=O)c2cccc(C(=O)Nc3cccc(C(F)(F)F)c3)c2)C1 (configuration not stated) | 4.12 |
| CCN(C)C(=O)n1ncc2c3c(N)nc(N)nc3ccc21 | 2.52 |
| CNCc1cccc2nc(-c3ccc(Cc4cc(Cl)ccc4OCC(C)C)o3)[nH]c12 | 16.7 |
| Cc1cc(C)n(Cc2ccc(C(=O)NCC3CCCCC3)cc2)n1 | 1.43 |
| CC(C)(C)c1ccc(CNC(=O)c2ccc(CNC3CCC(N)CC3)s2)cc1 (configuration not stated) | 2.96 |
| COCCNCC(O)Cn1c2ccc(Cl)cc2c2cc(Cl)ccc21 (configuration not stated) | 11.4 |
| CC(CN)OCn1cnc2c(N)ncnc21 (configuration not stated) | 2.19 |
| CC1(C)N=C(N)N=C(N)N1OCCCc1ccccc1 | 4.35 |
| CC[C@H](N/C(=N\c1ccc(-c2ccccc2)cc1)Nc1ccc(C#N)cc1O)c1ccccc1 | 0.72 |
| Cc1cn(CC(=O)Nc2cccc(-c3cccc(-c4nc5cc(C(F)(F)F)ccc5[nH]4)c3)c2)c(=O)[nH]c1=O | 1.71 |
| COc1ccc2nccc([C@@H](O)CN3CCC(NCc4nc5c(C#N)cccc5[nH]4)CC3)c2c1 | 2.17 |
| O=C(NC1CCN(CCN2CCc3ccccc3CC2)CC1)c1ccc(-c2ccc(C(F)(F)F)cc2)cc1 | 6.96 |
| CCc1cn2c3c(cc(C(=O)N[C@@H](Cc4ccccc4)[C@H](O)CNC4CC4)cc13)N(CC)S(=O)(=O)CC2 | 3.7 |
| NC(=O)NC(=O)C=Cc1ccco1 | 3.6 |
| COC(=O)c1cccc(CN(CCC(O)(C(F)(F)F)C(F)(F)F)C(=O)CC2CCCC2)c1 | 8.57 |
| CN1CCCC1CCOc1ccc2c(c1)N(C(=O)Nc1cc(Br)cc(C(F)(F)F)c1)CC2 (configuration not stated) | 2.92 |
| COc1cccc(NC(=O)Nc2ccc(-c3oc(C(=O)NCC(c4ccccc4)N(C)C)cc3-c3ccncc3)cc2)c1 (configuration not stated) | 6.85 |
| O=C(Nc1cccc(C(F)(F)F)c1)c1ccc(S(=O)(=O)NCC2CCCN2CC2CCCCC2)cc1 (configuration not stated) | 7.23 |
| CCOc1ccc(/C=C/C(=O)Nc2cccc3c2CCN(C)C3)cc1 | 0 |
| O=c1cc(NCCCNCc2ccc(Cl)c(Cl)c2)[nH]c2ccc(C(F)(F)F)cc12 | 2.33 |
| Nc1nc(N)c2c(ccc3c2ccn3CC2CC2)n1 | 1.45 |
| CCN(CC)CCOc1c(Cl)cc(Cl)cc1CNCCCNc1cc(=O)c2ccccc2[nH]1 | 1.33 |
| COc1ccc2c(c1)c(C1CCN(CCCCNC(=O)c3ccc(-c4ccc(C(F)(F)F)cc4)cc3)CC1)cn2C(C)C | 4.59 |

| Compound | IFI [%] |
| --- | --- |
| COc1cccc(-c2[nH]c3ccccc3c2CN2CCC(c3c(C)cccc3C)CC2)c1 | 7.75 |
| O=C1C([N+](=O)[O-])=C(O)c2c(F)cccc21 | -0 |
| CN(C(=O)NCCc1ccccc1)C1CCN(CCCCCNC(=O)/C=C/c2ccc(Cl)c(Cl)c2)CC1 | 9.09 |
| CCn1cnc2c(N3CCCCS3(=O)=O)cc(C(=O)N[C@@H](Cc3ccccc3)[C@H](O)CNC3CCOCC3)cc21 | 0.74 |
| COc1cc(Cc2cnc(N)nc2N)cc(OCCCCC2SC(=O)NC2=O)c1OC (configuration not stated) | 0.72 |
| N#Cc1ccc2c(c1)CCN(CCC1CCC(NC(=O)Nc3ccnc4ccccc34)CC1)C2 (configuration not stated) | 3.01 |
| O=C(NCCCNc1ccc2ccccc2n1)c1cc2c(Cl)cc(Cl)cc2[nH]1 | 5.97 |
| CCOc1ccc(C(Cc2ccccc2)NC(=O)c2cccnc2)cc1OCC (configuration not stated) | 0.83 |
| COc1ccc2nc(C)cc(Nc3ccc(Cl)cc3)c2c1 | 2.17 |
| O=C(NC1CCC(N2CCN(c3cccc(C(F)(F)F)c3)CC2)CC1)c1cc2ccccc2[nH]1 (configuration not stated) | 17.6 |
| Cc1cnc(C(=O)Nc2cccc(-c3csc(-c4nc5ccccc5[nH]4)c3)c2)cn1 | 3.74 |
| Cc1ccccc1C1CCN(C2CCC(NC(=O)/C=C/c3ccc(C(F)(F)F)cc3)CC2)CC1 (configuration not stated) | 10 |
| COc1cc2ccccc2c(CON2C(=N)N=C(N)NC2(C)C)c1OC | 2.82 |
| COc1cccc(CNC(=O)c2ccnc(-c3ccc(CNCCOc4ccccc4)cc3)c2)c1 | 3.77 |
| CN1CCN(c2cc(NC(=O)Nc3cccc(Cl)c3Cl)ccc2Cl)CC1 | 4.29 |
| O=C(Nc1ccc(Cl)cc1)Nc1cccc(CCNCc2ccccc2)c1 | 6.29 |
| COc1nc2c(CCN3CC[C@H](NCc4ccc5c(c4)NC(=O)CO5)[C@H](O)C3)c(Cl)cnc2cc1F | 2.13 |
| Cc1cc(=O)[nH]c2cc(Nc3ccnc(Nc4cccc(C(N)=O)c4)n3)ccc12 | 2.82 |
| CCNc1cc(C)nc(Nc2ccc(NC(=O)c3ccccc3)cc2)n1 | 9.8 |
| COc1ccc(-c2ccc(NC(=O)c3cccc(Cl)c3)cc2)cc1CN1CCCN(C)CC1 | 6.98 |
| Cc1cccc(CNc2nccc3[nH]c4ccccc4c23)c1 | 9.92 |
| O=C(NCCCCCN1CCC(c2c[nH]c3ccccc23)CC1)Nc1ccc(I)c(Cl)c1 | 6.3 |
| COc1cccc2cc(C(=O)N[C@@H](CC(C)C)C(=O)N[C@H](C=NNC(=O)OC(C)(C)C)Cc3ccccc3)oc12 | 10 |

| Compound | IFI [%] |
| --- | --- |
| Cc1ccc(NC(=O)NC2CCN(CCCCCNC(=O)C3CC3c3ccc(Cl)c(Cl)c3)CC2)cc1 (configuration not stated) | 12.4 |
| COc1ccccc1Oc1c(N(C)S(=O)(=O)c2ccc(C(C)C)cc2)nc(C(F)(F)F)nc1N(C)S(=O)(=O)c1ccc(C(C)C)cc1 | -0 |
| COc1ccc(Cc2cccc(C(C(=O)NCc3cc(Cl)cc(Cl)c3)N3CCN(C)CC3)c2)cc1 (configuration not stated) | 7.75 |
| Cc1cc(N2CCOCC2)nc2ccc(NC(=O)c3cccc([N+](=O)[O-])c3)cc12 | 1.52 |
| CCc1ccc(CN2CCC(CN(c3ccc(N4CCOCC4)c(F)c3)S(=O)(=O)c3ccc(C(C)(C)CC)cc3)CC2)cc1 | 3.76 |
| Fc1ccc(COc2ccc(Nc3ncnc4ccc(I)cc34)cc2Cl)cc1 | 3.76 |
| O=C(/C=C/c1ccc(I)cc1)NCCCCCN1CCC(c2c[nH]c3ccccc23)CC1 | 6.29 |
| COC(=O)c1ccc(CCC(C)NCC(O)c2cccc(Cl)c2)cc1 (configuration not stated) | 2.88 |
| N=C(N)Nc1ccc(OCCCCCOc2ccc(NC(=N)N)cc2)cc1 | 3.13 |
| N=C1N=C(N)NC2(CCCCC2)N1OCCCOc1cccc2ccccc12 | 9.16 |
| CN(C)CCNCc1nc(-c2ccc3c(Nc4ccc(Oc5ccccc5)cc4)ccnc3c2)cs1 | 5.19 |
| Cc1nc2nc(N)nc(N)c2c(C)c1Cc1cccc(F)c1 | 2.92 |
| Cc1cc(NC(=O)c2coc3cc(F)c(N4CC(C)N(C)C(C)C4)cc23)cnc1-c1ccc(C#N)cc1 (configuration not stated) | 3.62 |
| Cc1cc(-c2cc(Cl)ccc2Cl)no1 | 0 |
| CCC1(C)CC(CCNCc2ccccc2O)(c2ccccc2OC)CCO1 (configuration not stated) | 2.13 |
| CCOc1cc(Cl)c(C(C)NC(=O)c2cccc(OC)c2)cc1OCC (configuration not stated) | -0 |
| Cc1nc(-c2cccc(Nc3nccc(NCC(O)c4ccccc4C)n3)c2)cs1 (configuration not stated) | 13.6 |
| COCCNCc1ccc(-c2cccc(CN(C(=O)NCCc3ccccc3)C3CCN(Cc4ccccc4)CC3)c2)cc1 | 7.35 |
| CC(C)CC(NC(=O)c1cc2ccccc2s1)C(=O)N1CCCCCC1c1ccc(C(C)(C)C)cc1 (configuration not stated) | 0.93 |
| Cc1c(Cl)ccc2sc(N3CCN(C(=O)c4ccc([N+](=O)[O-])o4)CC3)nc12 | 2.27 |
| N#Cc1ccc2c(c1)CN(CCCCNC(=O)c1ccc(-c3ccccc3)cc1)CC2 | 2.16 |
| c1cc(-c2ccc(CNCc3ccsc3)cc2)cc(-c2nc3ccccc3[nH]2)c1 | 7.69 |
| CCOC(=O)c1c(C)n(-c2ccc(Cl)cc2)c2ccc(OC(=O)C=Cc3ccccc3)cc12 | -0 |

| Compound | IFI [%] |
| --- | --- |
| Cc1ccc2c(=NN=Cc3ccc(Cl)cc3)cc(C)[nH]c2c1 | -0 |
| CC(Cc1ccc(OCCN2CCN(c3cccc(Cl)c3)CC2)cc1)NCC(O)c1cccc(C(F)(F)F)c1 (configuration not stated) | 17.2 |
| Cc1[nH]c(C)c([N+](=O)[O-])c(=O)c1-c1ccc(Oc2ccccc2)cc1 | 1.89 |
| COc1ccc2nccc([C@@H](O)CN3CCC(NCc4ccc5c(c4)oc(=S)n5C)CC3)c2c1 | 3.65 |
| Cc1cc(O)c(-c2ccc(S(=O)(=O)c3ccc(Cl)cc3)cc2)c(C)n1 | 0.77 |
| CC(C)NCc1cccc(-c2ccc(-c3nc4ccccc4[nH]3)cc2)c1 | 2.97 |
| FC(F)(F)c1cccnc1N1CCC(Nc2nc3cc(Cl)ccc3[nH]2)CC1 | 16.2 |
| O=C(NCCCCN1CCC(c2cccc3ccccc23)CC1)c1ccc(NC(=O)c2ccc(Cl)cc2)cc1 | 3.7 |
| CCN(CCCN1CCCCC1)c1cc(C)nc(Nc2ccc(C)cc2)n1 | 2.56 |
| Cc1cc(N2CCOCC2)nc2ccc(NC(=O)c3ccc(Cl)c([N+](=O)[O-])c3)cc12 | 1.1 |
| CN(Cc1ccncc1)C(Cc1ccccc1)C1CCN(Cc2ccc(O)c(Cl)c2)CC1 (configuration not stated) | 5.26 |
| CCN(CCCN1CCCCC1)c1cc(C)nc(Nc2ccc3c(c2)CCC3)n1 | 3.75 |
| O=C(c1cccc(COc2ccc3c(c2)CCN(C2CCCC2)CC3)c1)N1CCN(c2ccncc2)CC1 | 4.32 |
| COc1ccc2nccc([C@@H](O)CN3CCC(NC(=O)/C=C/c4ccc5[nH]c(=O)ccc5c4)CC3)c2c1 | 0 |
| COc1ccc(-c2cnc(N)c(-c3ccc(O)c(OC)c3)c2)cn1 | 8.33 |
| NC(=O)COc1c(C2CCN(CCCCNC(=O)c3ccc(-c4ccc(Cl)cc4)c(O)c3)CC2)ccc2c1CCCC2 | 13.8 |
| CCCc1cccc(OC)c1OCCCON1C(N)=NC(N)=NC1(C)C | 4.51 |
| O=C(Nc1cccc(Cl)c1Cl)N[C@H]1CCN(CCCCCNC(=O)C2CC2c2ccc(Cl)c(Cl)c2)C1 (some centres not stated) | 13.3 |
| COc1ccc2nccc([C@@H](O)CN3CCC(NC(=O)C(c4cccs4)N4CCN(c5ccc(F)cc5)CC4)CC3)c2c1 (some centres not stated) | -0 |
| CCCNCc1ccc(-c2ccc(CN(CCOC)C(=O)c3cnc(C)cn3)cc2)nc1 | 0 |
| N=c1n(CCN2CCCCC2)c2ccccc2n1CC(O)c1cccc(Br)c1 (configuration not stated) | 2.21 |
| CCCCCCCCOc1c(OCC)cc(Cc2cnc(N)nc2N)cc1OCC | 0.76 |
| CC(C)COc1ccc(Cl)cc1Cc1ccc(-c2nc3cc(F)c(F)cc3[nH]2)o1 | 13.7 |
